# In all, about 310,000 compounds went through this assay and about 14,000 (4.5%) showed an effect of 50% or more. The effect is printed as a negative number. The list shows a part of the results.
# Target: human ether-à-go-go-related gene (hERG) potassium channel (human, UniProt Q12809)
# Test: primary screen, population patch clamp on CHO cells stably expressing hERG
# 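Further: peak tail current of the secondary pulse compared with the same well before compound.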
# Chain of human ether-à-go-go-related gene (hERG) potassium channel (Q12809 whole entry, looked up): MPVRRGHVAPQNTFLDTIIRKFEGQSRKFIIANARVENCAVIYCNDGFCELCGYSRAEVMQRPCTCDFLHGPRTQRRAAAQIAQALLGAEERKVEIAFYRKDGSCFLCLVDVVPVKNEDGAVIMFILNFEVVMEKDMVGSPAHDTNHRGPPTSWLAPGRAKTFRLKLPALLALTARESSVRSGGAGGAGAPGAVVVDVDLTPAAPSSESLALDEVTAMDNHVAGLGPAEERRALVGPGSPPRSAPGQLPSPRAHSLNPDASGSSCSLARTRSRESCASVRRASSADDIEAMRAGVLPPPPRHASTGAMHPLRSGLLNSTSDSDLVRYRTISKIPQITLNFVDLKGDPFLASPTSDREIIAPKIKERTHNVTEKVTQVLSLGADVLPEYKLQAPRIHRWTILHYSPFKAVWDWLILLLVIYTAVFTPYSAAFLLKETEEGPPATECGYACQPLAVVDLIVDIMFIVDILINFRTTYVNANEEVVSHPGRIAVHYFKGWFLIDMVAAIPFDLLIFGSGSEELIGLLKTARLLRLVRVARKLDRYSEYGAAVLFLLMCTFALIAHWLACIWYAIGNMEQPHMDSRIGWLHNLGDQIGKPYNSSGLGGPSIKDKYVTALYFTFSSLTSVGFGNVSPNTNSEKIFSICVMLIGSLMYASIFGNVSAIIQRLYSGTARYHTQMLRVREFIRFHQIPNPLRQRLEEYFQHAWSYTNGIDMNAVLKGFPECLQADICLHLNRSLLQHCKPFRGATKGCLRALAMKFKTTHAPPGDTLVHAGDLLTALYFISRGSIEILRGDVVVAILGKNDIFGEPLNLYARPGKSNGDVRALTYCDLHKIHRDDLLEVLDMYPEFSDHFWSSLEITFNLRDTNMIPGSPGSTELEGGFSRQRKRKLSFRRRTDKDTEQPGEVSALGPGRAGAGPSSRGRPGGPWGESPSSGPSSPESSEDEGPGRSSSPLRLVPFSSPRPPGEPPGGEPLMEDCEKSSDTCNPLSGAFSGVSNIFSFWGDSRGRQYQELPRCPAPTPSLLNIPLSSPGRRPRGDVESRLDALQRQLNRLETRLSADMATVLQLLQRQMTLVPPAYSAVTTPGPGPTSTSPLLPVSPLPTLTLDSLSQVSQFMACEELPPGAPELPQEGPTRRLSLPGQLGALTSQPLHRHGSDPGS
row,SMILES,"hERG current change (%, negative = inhibition) at 10uM [%]"
1,CC1CCCN(Cc2cnc(Cl)s2)C1 (stereo not shown),13
2,O=C(N=C1c2ccccc2CN1c1ccc(F)c(F)c1)c1cccnc1,-7.57
3,Br.N=c1n(CC(=O)c2cccc([N+](=O)[O-])c2)c2ccccc2n1Cc1ccccc1,-17.9
4,CCCN1CCC(NC(=O)Nc2cccc3ccccc23)CC1,-12.1
5,COc1ccc(-c2cc(CC3(C(=O)O)CCN(C(=O)OC(C)(C)C)CC3)on2)c(OC)c1,-1.54
6,CCOC(=O)c1cc(C)sc1NC(=O)CCC(=O)O,-3.59
7,CC(C(=O)O)N1C(=O)C2C3CC(C2C1=O)C1C(c2ccccc2)c2sc(=O)[nH]c2SC31 (stereo not shown),13.8
8,CC(C)(C)c1ccc(C(=O)C2CCCN(Cc3ccon3)C2)cc1 (stereo not shown),-1.45
9,COc1cc(/C=N/NC(=O)C2CC(=O)N(c3ccc(C)cc3)C2)cc(OC)c1OC (stereo not shown),16.2
10,O=C(Nc1cccc2ccccc12)c1onc2c1CCCC2,15.9
11,Cc1ccccc1COC(=O)c1nn(-c2ccccc2)nc1N,5.29
12,O=C(c1ccccc1Cl)N1CCNCC1,13.2
13,NCCNc1ccc(C(=O)N2c3ccccc3Sc3ccccc32)cc1[N+](=O)[O-],10.4
14,Cc1cnc(NC(=O)c2cccs2)s1,13.2
15,CCOc1ccc(C2C(C(=O)c3ccco3)=C(O)C(=O)N2CCCn2ccnc2)cc1OCC (stereo not shown),1.11
16,Fc1ccc(C2CC(c3ccccc3)n3ncnc3N2)cc1 (stereo not shown),-29.3
17,COCCOC(=O)C1=C(C)NC(=O)N(C(C)=O)C1c1ccc(Cl)cc1 (stereo not shown),1.94
18,COc1ccccc1-n1cnnc1SC(C)C(=O)Nc1ccc(NC(C)=O)cc1 (stereo not shown),1.22
19,Cc1cccc(OCC(=O)Nc2cccc(O)c2)c1,-1.74
20,CCC(=O)NNc1nc2c(Cl)cccc2s1,40.4
21,O=S(=O)(c1ccc(F)cc1)N1CCN(S(=O)(=O)c2cc(F)ccc2F)CC1,18
22,CCCc1nc2oc3ccccc3c(=O)c2c(=O)n1-c1ccc(C)cc1,-3.65
23,CN(CC(=O)Nc1ccccc1Cl)C(=O)COC(=O)CN1C(=O)NC2(CCCC2)C1=O,9.31
24,CCN(CC)c1nc2ccccc2[nH]1.Cl,-6.44
25,COc1ccc(Cl)cc1C(=O)NNC(=O)c1n[nH]c2ccccc12,0.44

# — PMC4336329 (PLoS ONE, 2015)
